From PMC4336329 (PLoS ONE, 2015)
Among all 310,000 compounds or so, about 14,000 (4.5%) showed an effect of 50% or more. Effects have a minus sign here. Some of the results follow.

What follows are compounds tested against human ether-à-go-go-related gene (hERG) potassium channel (human, UniProt Q12809) (assay: primary screen, population patch clamp on CHO cells stably expressing hERG).
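Note: peak tail current of the secondary pulse compared with the same well before compound.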

Chain of human ether-à-go-go-related gene (hERG) potassium channel (Q12809 whole entry, looked up): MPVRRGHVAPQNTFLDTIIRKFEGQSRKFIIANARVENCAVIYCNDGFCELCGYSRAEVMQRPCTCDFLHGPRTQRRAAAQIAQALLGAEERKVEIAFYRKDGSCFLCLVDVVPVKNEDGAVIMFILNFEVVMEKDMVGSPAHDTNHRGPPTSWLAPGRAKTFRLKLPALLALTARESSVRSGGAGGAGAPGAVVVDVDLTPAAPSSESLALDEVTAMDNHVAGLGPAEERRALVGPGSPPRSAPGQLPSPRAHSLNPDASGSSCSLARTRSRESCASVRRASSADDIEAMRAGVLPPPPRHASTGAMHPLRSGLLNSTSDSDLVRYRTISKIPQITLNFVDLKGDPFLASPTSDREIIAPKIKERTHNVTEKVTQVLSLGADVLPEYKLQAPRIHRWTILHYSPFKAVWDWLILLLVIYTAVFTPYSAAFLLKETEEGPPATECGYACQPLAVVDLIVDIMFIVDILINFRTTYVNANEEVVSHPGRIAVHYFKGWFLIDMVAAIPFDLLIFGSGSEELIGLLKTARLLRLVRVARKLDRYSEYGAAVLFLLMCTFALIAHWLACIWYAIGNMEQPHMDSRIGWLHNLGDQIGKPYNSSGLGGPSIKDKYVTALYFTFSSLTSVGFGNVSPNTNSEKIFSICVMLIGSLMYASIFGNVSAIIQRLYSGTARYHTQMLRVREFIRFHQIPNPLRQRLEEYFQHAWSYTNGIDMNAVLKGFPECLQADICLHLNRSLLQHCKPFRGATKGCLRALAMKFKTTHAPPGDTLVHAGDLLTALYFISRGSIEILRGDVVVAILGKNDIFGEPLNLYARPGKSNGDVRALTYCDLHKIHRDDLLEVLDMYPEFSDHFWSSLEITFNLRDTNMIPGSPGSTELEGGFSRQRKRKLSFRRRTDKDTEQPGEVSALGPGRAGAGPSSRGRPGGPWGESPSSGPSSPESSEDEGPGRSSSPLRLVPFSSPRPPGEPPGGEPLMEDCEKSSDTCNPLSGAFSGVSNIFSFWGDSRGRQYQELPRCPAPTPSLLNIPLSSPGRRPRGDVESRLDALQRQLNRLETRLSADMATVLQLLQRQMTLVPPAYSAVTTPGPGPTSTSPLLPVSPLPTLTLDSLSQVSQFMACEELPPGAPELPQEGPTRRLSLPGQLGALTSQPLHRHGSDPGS

Compound	hERG current change (%, negative = inhibition) at 10uM [%]
COCc1[nH]nc2c1C(C1C=CCCC1)C(C#N)=C(N)O2 (centres unmarked)	-8.37
CCOC(=O)C1CCCN(C(=O)Cn2nc(C)n3nc(-c4ccccc4)cc3c2=O)C1 (centres unmarked)	-8.5
Cc1cc(C)c2c(NC(=O)CCl)nn(C)c2n1	8.17
CCOC(=O)N1CCN(C(=O)c2ccc(CS(=O)Cc3ccccc3Cl)o2)CC1 (centres unmarked)	11.3
CCc1ccccc1N1C(=O)C2C3CC(=O)C(c4ccccc43)C2C1=O (centres unmarked)	18.3
CN(C)C(=O)/C=C\c1cn(-c2ccccc2)nc1-c1ccc2c(c1)OCCO2	10.7
O=C1CCCCCN1C(=O)c1cccc(C(=O)N2CCCCCC2=O)c1	4.67
O=C(CN1CCN(C(=O)C2CCCO2)CC1)Nc1cc(C(F)(F)F)ccc1Cl (centres unmarked)	-45.8
CCc1nc(SCC(=O)N2CCCCCC2)c2c(=O)n(C)c(=O)n(C)c2n1	-19.6
O=C(O)C1CSC(c2ccncc2)N1 (centres unmarked)	17.6
CCOC(=O)C(C)Sc1nnc(CNC(=O)c2ccc(OC)cc2)n1C1CCCCC1 (centres unmarked)	-8.89
CCNC(=S)Nc1cccc(NC(=O)c2ccccc2O)c1	0.564
COC(=O)N(NC(=O)C(O)(C(C)C)C(C)C)c1ccccc1	16.3
CCC(=O)Nc1ccc(NC(=O)c2ccco2)cc1	8.4
Cc1cccc(N2N=C(C(=O)O)CCC2=O)c1	10.2
CSc1ccc(C2c3[nH]c4ccccc4c3CCN2C(=O)c2ccnn2C)cc1 (centres unmarked)	-13.7
Oc1ccc(Nc2nc(-c3ccc(O)cc3)cs2)cc1	18.9
CC1=C(C)/C(=N\OS(=O)(=O)c2ccc(C)cc2)C=CC1=O	1.16
COc1cc(-c2nnc(SCC(=O)N3CCCC3)o2)cc(OC)c1OC	2.91
Cc1ccc(C)c(NC(=O)CCC(=O)NNC(=O)C(c2ccccc2)c2ccccc2)c1	13.6
Cc1ccc(-c2noc(-c3cccs3)n2)cc1	-0.851
CCOc1ccc(NC(=O)c2nn(-c3ccc(OC)cc3OC)c(=O)c3ccccc23)cc1	6.71
COC(=O)COc1ccc2c(-c3ccc(OC)cc3)cc(=O)oc2c1	-39.2

Compound	hERG current change (%, negative = inhibition) at 10uM [%]
O=c1[nH]ncc(N2CCCCCC2)c1Cl	6.77
NC(=O)C1CCN(C(=O)c2ccc([N+](=O)[O-])cc2NC(=O)c2cccs2)CC1	0.861
CCC(=O)Nc1nnc(S(=O)(=O)N(CC)c2cc(C)cc(C)c2)s1	14.2
Clc1ccc(CSc2nnc(Cn3cnc4ccccc43)o2)cc1	-8.81
COc1ccc(/C=C2\SC(=S)N(CCCC(=O)N3CCCCC3CCO)C2=O)cc1 (centres unmarked)	5.09
O=C(Nc1cccnc1)c1ccc2c(c1)C(=O)N(Cc1cccnc1)C2=O	-11.1
COc1cccc(CC2(CO)CCCN(Cc3cn[nH]c3-c3ccc(F)cc3)C2)c1 (centres unmarked)	6.58
CCCCN=Cc1c(C)[nH]n(-c2ccccc2)c1=S	-4.64
O=C(Nc1cccc(O)c1)N1CCOCC1	-6.87
COc1ccc(NC(=O)C2CCCN(S(=O)(=O)c3c(C)n[nH]c3C)C2)cc1OC (centres unmarked)	49.7
CCCn1c(SCC(=O)c2ccc(OC)c(OC)c2)nc2c1c(=O)n(C)c(=O)n2C	3.35
O=[N+]([O-])c1ccc2[nH]c(O)c(N=Nc3ccc(F)cc3)c2c1	14.6
NC(=O)COC(=O)c1ccc2noc(-c3ccccc3)c2c1	2.86
COc1ccc(-c2cnnc(N/N=C/c3ccc(C)o3)n2)cc1	4.44
CC(=O)Nc1ccc(S(=O)(=O)Nc2ccccc2C(=O)NCc2cccnc2)cc1	10.3
Cc1nc2sc(C(c3cccs3)N3CCC4(CC3)OCCO4)c(O)n2n1 (centres unmarked)	-0.485
Cc1ccc(Cl)cc1N1CCN(C(=O)c2ccc(CN3CCOCC3)cc2)CC1	-34.6
Cc1ccc(O)c(C(=O)c2cnc3c(c2)COc2ccc(C)cc2-3)c1	9.15
CC(NC(=O)CN(C)CC(=O)Nc1ccccc1Br)c1ccccc1.O=C(O)C(=O)O (centres unmarked)	6.92
CC1CCN(c2nc3nonc3nc2N2CCC(C)CC2)CC1	-12
N#Cc1ccccc1S(=O)(=O)N1CCN(C(=O)CN2CCCC2c2cccs2)CC1 (centres unmarked)	-32.3
O=C(CCN1C(=O)c2ccccc2C1=O)OCN1C(=O)c2ccccc2C1=O	-11.5
O=C(O)/C=C/c1ccc(S(=O)(=O)N2CCCCCC2)cc1	8.98

Compound	hERG current change (%, negative = inhibition) at 10uM [%]
CC(=O)N1CCN(C(=O)CCCNC(=O)c2ccc(Cl)cc2)CC1	14
Cc1onc(-c2ccccc2)c1C(=O)NC(C)C	13.2
Cc1cc(C)c(S(=O)(=O)Nc2cc(C)on2)c(C)c1	5.9
O=C(CNc1cccc(S(=O)(=O)N2CCCC2)c1)Nc1ccc(F)c(F)c1	-18
CCOC(=O)C1CCCN(C(=O)CCNC(=O)Cn2ccc3ccccc3c2=O)C1 (centres unmarked)	17.5
CN(c1cccc(NC(=O)c2ccc(N(C)S(=O)(=O)c3ccccc3)cc2)c1)S(C)(=O)=O	16.8
CS(=O)(=O)N1CCN(c2ccccc2NC(=O)Nc2cccc(Cl)c2)CC1	23.6
COc1ccc(C(=O)NC2CC2)cc1OC1CCN(Cc2cnn(C)c2)CC1	-32.7
COC(=O)COc1ccc(/C=C2/NC(=O)N(CC(=O)OC)C2=O)cc1	12.3
Cc1cc(NC(=O)c2cnn3c(C(F)F)cc(C4CC4)nc23)no1	-9.28
O=C(OCC(=O)N1CCN(c2ccccc2)CC1)c1ccncc1	-5.92
Cc1nn(-c2ccccc2)c(=S)c2ccccc12	12.1
O=C(CNc1cccc(S(=O)(=O)N2CCOCC2)c1)Nc1ccc(C(F)(F)F)cc1	-44.2
O=C1c2c(O)cc(O)cc2O[C@H](c2ccc(O)cc2)[C@H]1O	7.83
Cc1ccc(S(=O)(=O)Nc2cc(S(=O)(=O)N3CCOCC3)ccc2NCC2CCCO2)cc1 (centres unmarked)	-6.01
CC(C)(C)c1ccc(OCc2ccc(C(=O)Nc3cccnc3)o2)cc1	-14.3
Cn1c(O)c(C=NCCCC(=O)O)c(=O)n(C)c1=O	-6.59
Cc1ccnc(NS(=O)(=O)c2ccc(NC(=O)c3ccc(C)o3)cc2)n1	-0.797
CN(C)c1ccc(-c2nnn(CC(=O)N3c4ccccc4CCc4ccccc43)n2)cc1	11.7
CCOC(=O)c1c(-c2ccccc2)oc2ccc(OCC(=O)NNC(=O)CCCC(=O)O)cc12	19.7
CCOc1cccc(=O)c2c(C)n(Cc3ccccc3)c(C)c12	11.8
CC(C)NC(=O)C(=O)NCCN1CCN(S(=O)(=O)c2ccc(Cl)cc2)CC1	-33.3
O=C(Oc1ccccc1)c1cccc(COC(=O)c2cnccn2)c1	1.45

Compound	hERG current change (%, negative = inhibition) at 10uM [%]
O=C(NNC(=O)c1ccccc1O)c1ccc(NS(=O)(=O)c2ccc(F)cc2)cc1	6.21
COc1ccc(OC)c(CNC(=O)c2nn(C)c3c2CS(=O)(=O)c2ccccc2-3)c1	15.3
Cc1ccc(NN=C2c3ccccc3-c3ccccc32)cc1.Cl	21.9
Cc1ccc(Nc2cc(C)nc3ncnn23)cc1	2.81
Cc1c(C(=O)O)nn(-c2cccc(C(F)(F)F)c2)c(=O)c1C#N	4.53
Cc1ccc2[nH]c(C(=O)O)c(-c3ccccc3)c2c1	3.08
CCn1c(CSc2ncn[nH]2)nc2cc(C(=O)O)ccc21	-4.97
CCCCC1(C)Nc2ccccc2-c2nc3ccccc3n21 (centres unmarked)	-0.873
C/C=C/C(=O)Nc1nnc(C(C)C)s1	-4.91
Cc1cccc(C)c1-n1c(C)cc(/C=N/NC(=O)c2ccncc2)c1C	-12
CCN(CC)C(=O)C1=C(C)Nc2nc3ccccc3n2C1c1cccc(OC)c1 (centres unmarked)	6.19
O=C(OCc1cn(Cc2ccccc2)nn1)c1ccccc1	-2.92
CCS(=O)(=O)N1CCC(C(=O)N2CCN(Cc3ccccc3)CC2)CC1	-11.2
CCOC(=O)C1CCN(/C=C2/C(=O)NC(=O)N(c3ccc(OCC)cc3)C2=O)CC1	5.02
COc1ccc(-n2c(C)ccc2-c2ccccc2)cn1	-2.63
CC(C)=NNc1nc2c(c(=O)[nH]c(=O)n2C)n1CCc1ccccc1	13.3
Cc1ccc(CNC(=O)CN2CCC(C(N)=O)CC2)cc1	6.94
Cc1ccc(C(=O)N2CCCC(CCC(=O)N3CCN(c4ccccn4)CC3)C2)s1 (centres unmarked)	-24.5
Cl.OC(COc1ccc(Br)cc1)CN1CCC(Cc2ccccc2)CC1 (centres unmarked)	-85.9
Cc1ccc(O)c(NC(=O)c2ccc3c(c2)C(=O)N(CC(C)C)C3=O)c1	17.7
